Measured values from PubChem BioAssay AID1347120 (National Center for Advancing Translational Sciences (NCATS), 2019).
The whole screen tested about 390,000 compounds, of which about 930 (0.24%) were called active. The inconclusive results got no clear call from the source; some entries with a clear call stand among them for comparison. Calls follow the shape of the dose curve; as a rule, active = well fitted activation curve with a large enough effect; inconclusive = small, poorly fitted or top-dose-only effect; inactive = no such curve, though single readings can be large or run the other way. A potency beside an inconclusive call is a rough fit, not a confirmed value.

Assay: qHTS for Suppressors of FUS Proteinopathy: Primary screen using FUS-linked yeast assay; also: nearly all actives have a fitted effect of over 55% in size;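 as to growth rescue (activation): plate controls were DMSO vehicle for no effect and reference control for full effect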
Details: S. cerevisiae FUS-expressing, OD600, 24 h; Potency: growth rescue; growth rescue (activation): at 76.6 µM (top of the series)
How it was run: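 FUS-expressing yeast, raffinose-pregrown, induced in 2% galactose minimal medium at OD 0.005; compounds in a dilution series, 24hr at 30C. Growth restoration read as absorbance at 600 nm. CP55940 positive control, DMSO negative.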
Potency is read from the fitted curve at half-maximal effect; tags tell the direction and shape of the fitted curve.

SMILES | growth rescue (activation) | Potency
Cc1ccc(NCc2ccccc2O)cc1C | inactive: -4.91% | –
CCN(CC)S(=O)(=O)c1cc(NC(=O)CN2C(=O)NC3(CCCc4ccccc43)C2=O)ccc1C (centres undefined) | – | inconclusive: 35.5 µM [activator, partial curve, poor fit]
CCOc1ccccc1C(=O)N1CC(=O)Nc2ccc(C)cc2C1c1ccccc1 (centres undefined) | inactive: 19.8% | –
COC(=O)[C@@]1(Cc2ccc(F)cc2)[C@H]2c3cc(C(=O)N(C)C)n(CCF)c3C[C@H]2CN1C(=O)c1ccccc1 | inactive: 36.6% | –
CCOC(=O)N1CCC(=NNC(=O)c2cc3ccccc3cc2O)CC1 | – | inconclusive: 35.5 µM [activator, single point]
COCc1c(C(=O)NCCc2ccc(OC(F)F)cc2)oc2ccccc12 | – | inconclusive: 50.1 µM [activator, single point]
COc1ccc(/C=C2\SC(=S)N(CCCC(=O)N3CCCCC3CCO)C2=O)cc1 (centres undefined) | – | inconclusive: 22.4 µM [activator, partial curve, poor fit]
Cc1ccccc1CSCC(=O)NC(=O)NCc1ccco1 | – | inconclusive: 15.8 µM [activator, partial curve]
CCN(C[C@H]1N[C@@](C)(C(=O)OC)[C@H]2C(=O)N(Cc3ccccc3)C(=O)[C@@H]12)C(=O)c1ccc(C(C)(C)C)cc1 | – | inconclusive: 44.7 µM [activator, single point]
CCOc1ccccc1NC(=O)CSC1=Nc2ccccc2C2=NC(CC(=O)NCc3ccc4c(c3)OCO4)C(=O)N12 (centres undefined) | – | inconclusive: 44.7 µM [activator, partial curve, poor fit]
CC(C)C[C@H]1CNC(=S)N1C[C@H]1CCCN1C[C@H](Cc1ccc(O)cc1)N1C[C@H](CC(C)C)N(CC2CCCCCC2)C1=S | – | inconclusive: 17.8 µM [activator, partial curve, poor fit]
CC1=C(C(=O)Nc2ccccc2)C(c2ccc(C)o2)n2c(s/c(=C/c3ccccc3)c2=O)=N1 (centres undefined) | – | inconclusive: 10 µM [activator, partial curve, poor fit]
CC(C)=CCC/C(C)=C/CNC(=O)C[C@H]1C[C@H](C(=O)N2CCOCC2)[C@@]2(CCC3CCCC3)c3[nH]c4cc(CCC(=O)N(C)C)ccc4c3CCN2C1=O | – | inconclusive: 14.1 µM [activator, partial curve, poor fit]
COc1ccc(-c2cc3nccc(-c4cc(Cl)c(C)cc4O)n3n2)cc1 | inactive: 9.42% | –
FC(F)(F)c1ccc2c(c1)N1CCCC1CN2 (centres undefined) | – | inconclusive: 7.08 µM [activator, partial curve, poor fit]
O=C(C1=C[C@H](c2csc3ccccc23)C[C@H](OCc2ccc(CO)cc2)O1)N1CCCCCCC1 | – | inconclusive: 25.1 µM [activator, single point]
O=C(COC(=O)C12CC3CC(CC(O)(C3)C1)C2)N1CCN(S(=O)(=O)c2ccc(Cl)cc2)CC1 | – | inconclusive: 44.7 µM [activator, partial curve, poor fit]
CN(CCc1ccccc1)C(=O)c1ccc(NC(=O)Cc2ccc(NC(=O)C3CCCN(S(=O)(=O)c4cccc([N+](=O)[O-])c4)C3)cc2)cc1 (centres undefined) | – | inconclusive: 17.8 µM [activator, partial curve, poor fit]
CC(C)c1ccc(Nc2ccc(C(=O)O)cc2[N+](=O)[O-])cc1 | inactive: 4.78% | –
Cc1ccc(S(=O)(=O)NCC(Nc2cccc(Cl)c2)c2ccccc2)cc1 (centres undefined) | inactive: 16% | –

SMILES | growth rescue (activation) | Potency
C=CCC[C@H](Cc1ccc(F)cc1)C(=O)OC[C@@H](Cc1c[nH]c2ccccc12)NC(=O)[C@H](CC=C)CC(=O)N(CCO)Cc1ccccc1 | – | inconclusive: 11.2 µM [activator, partial curve, poor fit]
COc1cc(C2C(C#N)=C(N)Oc3cc(C)oc(=O)c32)cc2c1OCO2 (centres undefined) | – | inconclusive: 25.1 µM [activator, partial curve]
Cc1ccc(NC(=O)Cn2cc(C(=O)c3ccco3)c3ccccc32)cc1 | inactive: 2.64% | –
CCOc1ccc(-c2cccc(NS(=O)(=O)c3ccccc3C(F)(F)F)c2)nn1 | – | inconclusive: 35.5 µM [activator, single point]
Cc1ccc(Cc2cnc(N)s2)o1 | – | active: 11.2 µM
Cc1ccc(C)c(NC(=O)c2cc(-c3ccccc3)nn2-c2ccccc2)c1 | inactive: 12.2% | –
CCN(CC)C(=O)c1cccc(-c2csc(C(NC(C)=O)c3cccc(OC)c3)n2)c1 (centres undefined) | – | inconclusive: 25.1 µM [activator, partial curve]
Cc1cc(Nc2cccc(Cl)c2)nc2ccc(NC(=O)c3cccc(N(C)C)c3)cc12 | – | inconclusive: 35.5 µM [activator, partial curve, poor fit]
Cc1ccc(S(=O)(=O)Nc2cccc3cccnc23)c([N+](=O)[O-])c1 | inactive: -0.0576% | –
COc1ccc(C(CC(=O)N2CCCC2)c2c(OC)cc(OC)c3c(-c4ccccc4)cc(=O)oc23)cc1 (centres undefined) | – | inconclusive: 35.5 µM [activator, single point]
N#Cc1ccc(NC(=O)N2CCC(c3nc4c(nnn4Cc4cccc(Cl)c4)c(=O)[nH]3)CC2)cc1 | – | inconclusive: 28.2 µM [activator, single point]
COc1cccc(NS(=O)(=O)NC(=O)c2c(C)[nH]c3ccccc23)c1 | – | inconclusive: 28.2 µM [activator, partial curve, poor fit]
CCN1CCN(C(=O)CS(=O)(=O)Cc2nc(-c3ccccc3C)oc2C)CC1 | inactive: -13% | –
C=CCCC(=O)N(Cc1ccccc1)c1ccccc1C(=O)Nc1cc(OC)ccc1OC | – | inconclusive: 25.1 µM [activator, partial curve]
CCC(C)N1C(=O)C2C(C(=O)Nc3cccc(OC)c3)C3C=CC2(O3)C1C(=O)NC1CCCCC1C (centres undefined) | – | inconclusive: 50.1 µM [activator, partial curve, poor fit]
CCN(CC)c1ccc(NC(=O)CSc2nc3ccccc3c(=O)n2-c2ccc(C)cc2)cc1 | – | inconclusive: 17.8 µM [activator, partial curve, poor fit]
COCCNC(=O)[C@]1(C#N)CC(=O)N(C)[C@@H]1c1ccccc1 | inactive: -21.6% | –
Cc1ccc(CCNC(=O)C(CC(C)C)NS(=O)(=O)c2ccc3c(c2)oc(=O)n3C)cc1 (centres undefined) | inactive: -22.1% | –
Cc1cccc(N2CCN(C(=O)c3cc4c(=O)n(C)c5ccccc5c4n3C)CC2C)c1 (centres undefined) | – | inconclusive: 31.6 µM [activator, single point]
O=C(NCC(c1ccco1)N1CCCCC1)c1cccc(NS(=O)(=O)c2ccc(Br)cc2)c1 (centres undefined) | – | inconclusive: 25.1 µM [activator, single point]

SMILES | growth rescue (activation) | Potency
Cc1ccc(CN2C(=O)C(Cc3ccccc3)Nc3ncnc(N4CCN(c5ccccc5)CC4)c32)cc1 (centres undefined) | – | active: 25.1 µM
Cc1c(C(=O)Nc2ccc(-c3nnc4n3CCCCC4)cc2)oc2c1ccc1ccccc12 | – | inconclusive: 31.6 µM [activator, partial curve, poor fit]
Cc1sc2nc(SCC(=O)NCc3ccco3)n(CCc3ccccc3)c(=O)c2c1C | – | inconclusive: 25.1 µM [activator, partial curve, poor fit]
COc1c(C)cc(S(=O)(=O)Nc2cccc(-c3ccc(N4CCOCC4)nn3)c2)c(C)c1C | – | inconclusive: 39.8 µM [activator, single point]
COc1ccc(-c2c(C)nn3c(-c4ccccc4)cc(C)nc23)cc1 | inactive: -18% | –
CCOC(=O)c1cc(-c2ccccc2C)n(CC2CC(c3ccc(OC)cc3)=NO2)n1 (centres undefined) | – | inconclusive: 22.4 µM [activator, single point]
CCn1c(=NC(=O)c2ccc(S(=O)(=O)N3CCCCC3)cc2)sc2cccc(OC)c21 | inactive: -1.24% | –
CC(C)=CCC12Oc3cc(O)ccc3C1(O)Oc1cc3c(c(O)c1C2=O)C=CC(C)(C)O3 (centres undefined) | – | inconclusive: 28.2 µM [activator, single point]
CCC(NC(=O)c1ccccc1NC(=O)c1ccco1)C(=O)NNC(=O)c1ccc(OC)cc1 (centres undefined) | – | inconclusive: 5.01 µM [activator, full curve, poor fit]
CCCCn1c(=O)[nH]c(=O)c2c1nc(-c1ccc(OC)c(Br)c1)n2CC(C)C | – | inconclusive: 17.8 µM [activator, single point]
Cc1cc(N2CCN(C)CC2)nc2ccc(NC(=O)Nc3ccccc3Br)cc12 | inactive: 11.4% | –
O=C(NC(=S)NCc1ccccc1)c1cccc(Cl)c1 | inactive: 0.621% | –
CC(=O)c1c(C)[nH]c(C(=O)NCc2ccccc2F)c1C | inactive: -0.652% | –
COc1cc(/C=C2/CC/C(=C/c3ccc(O)c(OC)c3)C2=O)ccc1O | – | inconclusive: 14.1 µM [activator, partial curve, poor fit]
COc1ccc(CCNC(=O)c2ccc3c(c2)N(Cc2ccc(C)cc2)CCS3)cc1OC | – | inconclusive: 22.4 µM [activator, single point]
CCOC(=O)[C@]12CCCC=C1N(Cc1ccco1)C(=O)[C@H](CC(=O)NCc1cccc3ccccc13)C2 | – | inconclusive: 14.1 µM [activator, partial curve, poor fit]
CC(=O)N1c2ccc(S(=O)(=O)N3CCCC(C(=O)Nc4cccc(F)c4)C3)cc2CC1C (centres undefined) | – | inconclusive: 31.6 µM [activator, single point]
NC(=O)c1ccsc1NC(=O)COC(=O)c1ccc(Cl)c(N)c1 | – | inconclusive: 50.1 µM [activator, single point]
COc1cccc(-c2cnc3c(NC(C)=O)cc(-c4cc(F)ccc4OC)cn23)c1 | – | inconclusive: 50.1 µM [activator, single point]
